The other results are listed elsewhere or left out. The full chains were built here from the parent and the listed change. Inactive controls read about 0.05.
B1: TEV protease; numbered along this chain (parent)
chain: MGESLFKGPRDYNPISSSICHLTNESDGHTTSLYGIGFGPFIITNKHLFRRNNGTLVVQSLHGVFKVKDTTTLQQHLVDGRDMIIIRMPKDFPPFPQKLKFREPQREERICLVTTNFQTKSMSSMVSDTSCTFPSGDGIFWKHWIQTKDGQCGSPLVSTRDGFIVGIHSASNFTNTNNYFTSVPKNFMELLTNQEAQQWVSGWRLNADSVLWGGHKVFMVKPEEPFQPVKEATQL

Variants of: B1
Assay: raw area under fraction-flipped curve 0-4 h after induction (AUC4h, not background-subtracted), DNA-recorder readout of cleavage of the substrate (dimensionless); higher = more cleavage of the substrate by the protease variant
Details: temperature: 34 °C; time window: 0-4 h after rhamnose induction
Protocol: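 In vivo DNA recorder in E. coli TOP10(DE3) ΔrhaA at 34 °C. Each TEVp single-site mutant (parent TEVp 0) is paired with a single-site variant of the 7-mer TEVs (canonical ENLYFQ|S). The substrate sits between flexible linkers in a Bxb1-sfGFP-TEVs-SsrA fusion, so cleavage stabilises Bxb1 and speeds flipping of a recombination array, read by NGS. The value is the raw area under the fraction-flipped curve over 0-4 h after rhamnose induction (AUC4h), with ≥20 reads per time point. It is not background-subtracted; inactive controls average about 0.047.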
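Further: Bxb1 expression induced with 0.2% (w/v) L-rhamnose at OD600 near 0.5, cultures sampled hourly, flipped fraction per protease–substrate barcode pair counted by paired-end Illumina sequencing.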

W203F
area with substrate ENLYFAS: 0.0526
area with substrate ENLYFCS: 0.0626
area with substrate ENLYFES: 0.052
area with substrate ENLYFGS: 0.063
area with substrate ENLYFHS: 0.0828
area with substrate ENLYFIS: 0.0499
area with substrate ENLYFMS: 0.0506
area with substrate ENLYFNS: 0.0658
area with substrate ENLYFRS: 0.0664
area with substrate ENLYFVS: 0.0633
area with substrate ENLYFYS: 0.0653

N53K
area with substrate ENLYFAS: 0.0562
area with substrate ENLYFCS: 0.0634
area with substrate ENLYFDS: 0.0397
area with substrate ENLYFES: 0.0635
area with substrate ENLYFFS: 0.0591
area with substrate ENLYFHS: 0.0438
area with substrate ENLYFIS: 0.0599
area with substrate ENLYFMS: 0.0509
area with substrate ENLYFPS: 0.0562
area with substrate ENLYFSS: 0.0524
area with substrate ENLYFTS: 0.0607
area with substrate ENLYFVS: 0.0559
area with substrate ENLYFYS: 0.056

T233A
area with substrate ENLYFAS: 0.0236
area with substrate ENLYFFS: 0.0436
area with substrate ENLYFIS: 0.0512
area with substrate ENLYFKS: 0.0413
area with substrate ENLYFLS: 0.0392
area with substrate ENLYFMS: 0.0759
area with substrate ENLYFNS: 0.0403
area with substrate ENLYFSS: 0.0643

T129R
area with substrate ENLYFAS: 0.0704
area with substrate ENLYFCS: 0.0477
area with substrate ENLYFGS: 0.0299
area with substrate ENLYFHS: 0.0499
area with substrate ENLYFMS: 0.0617
area with substrate ENLYFNS: 0.0136
area with substrate ENLYFRS: 0.0661
area with substrate ENLYFSS: 0.0497
area with substrate ENLYFVS: 0.0688

D82T
area with substrate ENLYFAS: 0.0495
area with substrate ENLYFCS: 0.0302
area with substrate ENLYFES: 0.0629
area with substrate ENLYFFS: 0.0669
area with substrate ENLYFGS: 0.0461
area with substrate ENLYFHS: 0.0621
area with substrate ENLYFIS: 0.0509
area with substrate ENLYFKS: 0.024
area with substrate ENLYFLS: 0.0426
area with substrate ENLYFMS: 0.0542
area with substrate ENLYFNS: 0.0509
area with substrate ENLYFPS: 0.0626
area with substrate ENLYFSS: 0.0658
area with substrate ENLYFTS: 0.049
area with substrate ENLYFWS: 0.04
area with substrate ENLYFYS: 0.0497

R109M
area with substrate ENLYFAS: 0.0532
area with substrate ENLYFES: 0.0541
area with substrate ENLYFFS: 0.0761
area with substrate ENLYFHS: 0.0581
area with substrate ENLYFIS: 0.0455
area with substrate ENLYFMS: 0.0715
area with substrate ENLYFWS: 0.0574

R109S
area with substrate ENLYFAS: 0.063
area with substrate ENLYFCS: 0.061
area with substrate ENLYFDS: 0.0674
area with substrate ENLYFES: 0.0736
area with substrate ENLYFGS: 0.0679
area with substrate ENLYFHS: 0.0629
area with substrate ENLYFIS: 0.0656
area with substrate ENLYFKS: 0.06
area with substrate ENLYFLS: 0.0519
area with substrate ENLYFMS: 0.0652
area with substrate ENLYFNS: 0.0629
area with substrate ENLYFPS: 0.0732
area with substrate ENLYFRS: 0.0622
area with substrate ENLYFSS: 0.0818
area with substrate ENLYFVS: 0.0598
area with substrate ENLYFWS: 0.053
area with substrate ENLYFYS: 0.0734

K7C
area with substrate ENLYFAS: 0.0632
area with substrate ENLYFCS: 0.0549
area with substrate ENLYFES: 0.0632
area with substrate ENLYFFS: 0.065
area with substrate ENLYFIS: 0.0611
area with substrate ENLYFNS: 0.0527
area with substrate ENLYFSS: 0.0646
area with substrate ENLYFYS: 0.0488

L235W
area with substrate ENLYFAS: 0.0625
area with substrate ENLYFCS: 0.0605
area with substrate ENLYFFS: 0.075
area with substrate ENLYFIS: 0.0466
area with substrate ENLYFKS: 0.0542
area with substrate ENLYFMS: 0.0702
area with substrate ENLYFNS: 0.0478
area with substrate ENLYFPS: 0.0438
area with substrate ENLYFRS: 0.063
area with substrate ENLYFSS: 0.0577
area with substrate ENLYFTS: 0.0531
area with substrate ENLYFVS: 0.0686
area with substrate ENLYFWS: 0.058
area with substrate ENLYFYS: 0.0693

L205C
area with substrate ENLYFAS: 0.0036
area with substrate ENLYFES: 0.0579
area with substrate ENLYFHS: 0.0641
area with substrate ENLYFMS: 0.0649
area with substrate ENLYFNS: 0.0597
area with substrate ENLYFPS: 0.0428
area with substrate ENLYFTS: 0.0508
area with substrate ENLYFWS: 0.0643

F95P
area with substrate ENLYFAS: 0.048
area with substrate ENLYFDS: 0.0435
area with substrate ENLYFES: 0.0476
area with substrate ENLYFFS: 0.0459
area with substrate ENLYFGS: 0.057
area with substrate ENLYFHS: 0.0383
area with substrate ENLYFIS: 0.0547
area with substrate ENLYFKS: 0.0489
area with substrate ENLYFMS: 0.0345
area with substrate ENLYFNS: 0.06
area with substrate ENLYFPS: 0.061
area with substrate ENLYFSS: 0.0386
area with substrate ENLYFVS: 0.0325
area with substrate ENLYFYS: 0.0595

P94L
area with substrate ENLYFAS: 0.0455
area with substrate ENLYFES: 0.0546
area with substrate ENLYFFS: 0.0599
area with substrate ENLYFIS: 0.0614
area with substrate ENLYFKS: 0.0639
area with substrate ENLYFMS: 0.0605
area with substrate ENLYFNS: 0.0823

S171R
area with substrate ENLYFAS: 0.0652
area with substrate ENLYFFS: 0.0704
area with substrate ENLYFIS: 0.0544
area with substrate ENLYFMS: 0.065
area with substrate ENLYFNS: 0.0679
area with substrate ENLYFPS: 0.0656
area with substrate ENLYFRS: 0.054
area with substrate ENLYFSS: 0.0514
area with substrate ENLYFTS: 0.0521
area with substrate ENLYFWS: 0.0419

R81Q
area with substrate ENLYFAS: 0.056
area with substrate ENLYFES: 0.056
area with substrate ENLYFNS: 0.0494
area with substrate ENLYFPS: 0.0623
area with substrate ENLYFRS: 0.0544
area with substrate ENLYFTS: 0.051

W141K
area with substrate ENLYFAS: 0.0573
area with substrate ENLYFCS: 0.0381
area with substrate ENLYFDS: 0.0544
area with substrate ENLYFFS: 0.0666
area with substrate ENLYFIS: 0.051
area with substrate ENLYFKS: 0.0611
area with substrate ENLYFMS: 0.0469
area with substrate ENLYFNS: 0.0581
area with substrate ENLYFPS: 0.051
area with substrate ENLYFRS: 0.0476
area with substrate ENLYFTS: 0.0569
area with substrate ENLYFVS: 0.0233

W212H
area with substrate ENLYFAS: 0.0349
area with substrate ENLYFGS: 0.0557
area with substrate ENLYFIS: 0.0553
area with substrate ENLYFLS: 0.0467
area with substrate ENLYFMS: 0.0668
area with substrate ENLYFNS: 0.0454
area with substrate ENLYFPS: 0.0612
area with substrate ENLYFRS: 0.0515
area with substrate ENLYFSS: 0.0677
area with substrate ENLYFVS: 0.0589
area with substrate ENLYFWS: 0.0624
area with substrate ENLYFYS: 0.0349
